Data on two molecules can be found in article PMC8017232.

Assay [1] deals with T1, Flag-tagged RIG-I 2CARDs (1–233) (UniProt Q6Q899).
T1 sequence: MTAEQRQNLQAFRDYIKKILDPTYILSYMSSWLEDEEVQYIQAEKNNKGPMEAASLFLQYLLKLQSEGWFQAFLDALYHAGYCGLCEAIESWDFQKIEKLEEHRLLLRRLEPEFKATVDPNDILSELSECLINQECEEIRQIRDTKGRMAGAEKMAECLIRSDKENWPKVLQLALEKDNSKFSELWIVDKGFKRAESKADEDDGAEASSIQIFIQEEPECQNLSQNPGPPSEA
Kind of assay: co-IP; HEK293T cells co-transfected with Myc-TIPE2 and a Flag-tagged protein for 24 h; whole cell lysate immunoprecipitated by the Flag tag (anti-Flag M2 beads in Figure 6E); immunoblot with anti-Flag or anti-Myc. (Immunoblotting shows a protein as a band on a membrane.)

The next assay concerns the target T2, Flag-MAVS (UniProt Q8VCF0).
T2 sequence: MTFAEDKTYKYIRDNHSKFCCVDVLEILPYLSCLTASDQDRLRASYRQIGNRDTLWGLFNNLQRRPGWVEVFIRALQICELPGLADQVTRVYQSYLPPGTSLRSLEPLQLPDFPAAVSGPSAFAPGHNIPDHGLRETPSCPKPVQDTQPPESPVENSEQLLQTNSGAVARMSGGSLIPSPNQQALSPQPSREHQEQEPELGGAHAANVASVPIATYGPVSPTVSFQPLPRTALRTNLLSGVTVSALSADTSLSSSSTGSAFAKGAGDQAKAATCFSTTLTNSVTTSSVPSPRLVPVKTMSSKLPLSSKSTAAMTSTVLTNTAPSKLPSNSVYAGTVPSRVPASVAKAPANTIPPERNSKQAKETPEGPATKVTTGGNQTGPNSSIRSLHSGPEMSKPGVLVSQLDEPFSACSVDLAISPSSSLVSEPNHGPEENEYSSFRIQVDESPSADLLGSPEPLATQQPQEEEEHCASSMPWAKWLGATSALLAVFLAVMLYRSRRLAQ
Described as above.

Assay [2] addresses T3, Flag-tagged RIG-I CTD (735–926) (UniProt Q6Q899).
T3 sequence: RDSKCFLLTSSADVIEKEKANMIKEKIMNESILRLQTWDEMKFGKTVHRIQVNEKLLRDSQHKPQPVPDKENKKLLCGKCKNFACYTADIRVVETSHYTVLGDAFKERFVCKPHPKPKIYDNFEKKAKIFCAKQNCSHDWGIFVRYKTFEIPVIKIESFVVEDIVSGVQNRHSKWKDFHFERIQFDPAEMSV
Described as above.

In assay [3] the target is T4, Flag-tagged full-length RIG-I (1–926) (UniProt Q6Q899).
T4 sequence: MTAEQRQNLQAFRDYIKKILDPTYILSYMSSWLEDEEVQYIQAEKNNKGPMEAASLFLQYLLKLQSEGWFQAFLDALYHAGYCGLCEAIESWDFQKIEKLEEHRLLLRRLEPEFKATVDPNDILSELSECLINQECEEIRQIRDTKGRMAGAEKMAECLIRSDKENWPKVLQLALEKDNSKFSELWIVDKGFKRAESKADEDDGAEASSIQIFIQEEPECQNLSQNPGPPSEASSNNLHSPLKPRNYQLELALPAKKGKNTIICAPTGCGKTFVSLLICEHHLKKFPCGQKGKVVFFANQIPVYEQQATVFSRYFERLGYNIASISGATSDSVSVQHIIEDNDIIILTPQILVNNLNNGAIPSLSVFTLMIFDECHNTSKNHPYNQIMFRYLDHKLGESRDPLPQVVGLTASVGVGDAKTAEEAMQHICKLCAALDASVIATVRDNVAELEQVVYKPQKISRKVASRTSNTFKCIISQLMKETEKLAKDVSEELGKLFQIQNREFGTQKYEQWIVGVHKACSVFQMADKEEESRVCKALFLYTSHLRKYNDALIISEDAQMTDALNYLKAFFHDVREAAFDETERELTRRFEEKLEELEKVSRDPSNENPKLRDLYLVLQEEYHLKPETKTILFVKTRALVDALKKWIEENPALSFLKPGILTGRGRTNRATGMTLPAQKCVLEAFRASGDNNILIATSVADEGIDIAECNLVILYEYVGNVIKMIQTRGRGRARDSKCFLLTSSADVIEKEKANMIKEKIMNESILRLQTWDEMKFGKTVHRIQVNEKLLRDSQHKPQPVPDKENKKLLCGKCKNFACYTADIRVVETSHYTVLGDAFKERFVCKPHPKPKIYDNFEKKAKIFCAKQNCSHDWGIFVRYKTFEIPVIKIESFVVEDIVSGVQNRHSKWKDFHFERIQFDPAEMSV
The assay is described as above.

The target of another assay is T5, Flag-TBK1 (UniProt Q9WUN2).
T5 sequence: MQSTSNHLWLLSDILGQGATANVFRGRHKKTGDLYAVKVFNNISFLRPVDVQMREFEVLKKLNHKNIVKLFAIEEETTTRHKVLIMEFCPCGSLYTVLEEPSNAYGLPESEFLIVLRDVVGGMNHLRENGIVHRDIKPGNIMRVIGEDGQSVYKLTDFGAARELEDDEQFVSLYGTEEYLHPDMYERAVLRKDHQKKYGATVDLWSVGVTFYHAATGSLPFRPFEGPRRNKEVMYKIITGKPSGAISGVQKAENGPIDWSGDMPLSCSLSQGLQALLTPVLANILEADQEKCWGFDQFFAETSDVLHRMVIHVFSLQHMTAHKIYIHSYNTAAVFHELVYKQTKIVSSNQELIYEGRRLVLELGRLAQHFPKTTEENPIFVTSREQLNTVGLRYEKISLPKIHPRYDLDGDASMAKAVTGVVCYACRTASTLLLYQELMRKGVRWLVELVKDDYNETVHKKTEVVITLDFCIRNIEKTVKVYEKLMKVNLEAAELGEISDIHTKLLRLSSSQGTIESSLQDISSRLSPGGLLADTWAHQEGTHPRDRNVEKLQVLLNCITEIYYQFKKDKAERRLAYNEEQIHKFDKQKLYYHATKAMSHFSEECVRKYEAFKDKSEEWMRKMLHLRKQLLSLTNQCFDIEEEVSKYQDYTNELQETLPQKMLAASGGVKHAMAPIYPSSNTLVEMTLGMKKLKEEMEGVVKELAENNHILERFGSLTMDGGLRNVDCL
The description is as above.

In assay [4] the target is T6, RIG-I (endogenous) (mouse (endogenous in RAW264.7 and BMDMs)) (UniProt Q6Q899).
T6 sequence: T4 sequence
As to the kind of experiment: co-IP.

These are yes or no findings as the source states them, for the method shown. Binding seen in cells or lysates may run through a third protein. Some binding calls cover weakened binding; strength is not graded here. For part of these data: Sequences can lack the tags named with a protein.

B1: Myc-TIPE2 (tumor necrosis factor-α-induced protein 8-like 2) (protein, UniProt Q9D8Y7 1-184)
chain: MESFSSKSLALQAEKKLLSKMAGRSVAHLFIDETSSEVLDELYRVSKEYTHSRPKAQRVIKDLIKVAVKVAVLHRSGCFGPGELALATRFRQKLRQGAMTALSFGEVDFTFEAAVLAGLLVECRDILLELVEHHLTPKSHDRIRHVFDHYSDPDLLAALYGPDFTQHLGKICDGLRKLLDEGKL
On to B1, for which the binding entry in assay [1] is listed as “binds”; with Flag-MAVS it was “no binding”; in assay [2] it was “binds”; in assay [3] it was “binds”; in the assay with Flag-TBK1, “no binding”.

B2: TIPE2 (endogenous) (protein, UniProt Q9D8Y7 1-184)
chain: B1 chain
Take B2: in assay [4], the binding entry was “binds”.
